# According to PubChem BioAssay AID1508642 (National Center for Advancing Translational Sciences (NCATS), 2021):
# Hit rate of the full screen: of about 43,000 compounds, about 200 (0.47%) were called active. Roughly 12% stayed inconclusive and do not appear here. Calls come from the whole dose curve; as a rule, active = well fitted cell-killing curve with a large enough effect; inconclusive = small, poorly fitted or top-dose-only effect, or effect the other way; inactive = flat fitted curve, though single readings scatter. The list shows a part of the results.
# Assay: Cell viability qHTS assay in S16 Pmp22-F2sN cells; note: nearly all actives have a fitted effect of over 65% in size
# Conditions: S16 Pmp22-F2sN Schwann cells (luciferase reporters placed in the Pmp22 gene) viability, CellTiter-Glo, 24 h; series mostly up to 57.5 µM; activity change, negative = cytotoxicity: at the top concentration
# Method in brief: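 CellTiter-Glo counter-screen, qHTS, 1536-well. Cells: S16(c9) Pmp22-F2sN, 500-1,000/well in DMEM + 10% FBS. Cpd 23 nL pin transfer, 24 h, 37C/5% CO2. Read: luminescence, CCD imager.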
# % is set by controls: 0 for no effect and ±100 for the full control effect.
row,Compound,"activity change, negative = cytotoxicity"
1,O=C(Nc1ccc2nc(SCC(=O)N3CCc4ccccc43)sc2c1)c1ccc(Cl)cc1,inactive: 19%
2,O=C(CSc1nc(-c2cccs2)cc(C(F)(F)F)n1)Nc1ccccc1Cl,inactive: -17.2%
3,Cc1ccc(CNC(=O)c2ccc(NC(=O)c3nsc4ccccc34)cc2)cc1,inactive: 2.13%
4,CCCOc1ccc(CNC(=O)c2cc3oc4ccccc4c3n2C)cc1,inactive: -0.414%
5,CCOc1ccccc1NC(=O)C(=O)NCC(c1cccnc1)N1CCN(c2ccccc2)CC1 (centres undefined),inactive: -21.2%
6,Cc1ccc(NC(=O)CN2C(=O)C(c3ccc(F)cc3)=NC2(C)C)c(C)c1,inactive: -0.283%
7,Cc1cccc(C(=O)Nc2sc3c(c2C(=O)Nc2ccccc2)CCC3)c1,inactive: 7.11%
8,CCn1cc(C(=O)NCc2ccccc2Cl)c(=O)c2cc(S(=O)(=O)N3CCOCC3)ccc21,inactive: -0.487%
9,Cc1ccc2nc(NCCc3ccc(Cl)cc3)c3nncn3c2c1,inactive: 2.86%
10,Cc1ccc(C)c(Oc2c(C(F)(F)F)oc3c(CN4CCN(C)CC4)c(O)ccc3c2=O)c1,inactive: 10.5%
11,CC(C)c1ccc(Nc2c(-c3ccsc3)nc3ccc(Cl)cn23)cc1,inactive: 0.218%
12,CCOC(=O)C1=C(CN(C)Cc2ccccc2)NC(=O)NC1c1ccc(OC(C)C)cc1 (centres undefined),inactive: -14.4%
13,O=C(Nc1ccccc1[N+](=O)[O-])c1csnn1,inactive: -10.4%
14,CCC(=O)C1=C(c2ccccc2)N(C(=O)CC)n2c(nnc2C2CCCCC2)S1,inactive: 5.98%
15,CCOc1ccccc1NC(=O)CCS(=O)(=O)c1ccc(OC)cc1,inactive: 3.55%
16,CCc1ccc(NC(=O)c2cc(CN3CCOCC3)on2)cc1,inactive: -1.57%
17,CCOc1ccc(-n2c(SCC(=O)N3CCCc4ccccc43)nc3c([nH]c4ccccc43)c2=O)cc1,inactive: 22.4%
18,Cc1cccc(-n2ccnc2SCC(=O)Nc2cc(C(F)(F)F)ccc2Cl)c1,inactive: -0.722%
19,COc1ccc(CCNC(=O)C(=O)Nc2ccc(C)c(C)c2)cc1OC,inactive: 1.75%
20,CCCCC(=O)Nc1cccc(-c2nc3ccccc3s2)c1,inactive: 11.8%
21,CC(C)Oc1ccc(CNC(=O)c2cnc3sc(N4CCCCCC4)nn3c2=O)cc1,inactive: 4.6%
22,CC(C)CCn1c(=O)c2sccc2n2c(CCCC(=O)Nc3ccc(F)c(Cl)c3)nnc12,inactive: -6.32%

row,Compound,"activity change, negative = cytotoxicity"
1,O=C(NCc1ccc(F)cc1Cl)c1ccc(CSCc2ccccc2Cl)o1,inactive: 17.3%
2,Cc1ccc(NC(=O)c2cc(-c3cccs3)nc3ccccc23)c(C)c1,inactive: -0.193%
3,Cc1ccc(N2CCN(C(=O)Nc3cn(CC(C)C)c(=O)c4ccccc34)CC2)c(C)c1,inactive: -8.71%
4,CCCN(CCC)CCNC(=O)Cn1cnc2sc(C)c(S(=O)(=O)N3CCN(c4ccccc4OC)CC3)c2c1=O,inactive: 1.88%
5,CCn1c(C(=O)NCc2ccccc2)cc2sc(Cl)cc21,inactive: -25.1%
6,COc1cccc(CNC(=O)c2ccc(CN3CC(=O)N4CCCCC4C3=O)cc2)c1 (centres undefined),inactive: 5.29%
7,COc1ccccc1/C=C(\C#N)C(=O)NCC1CCCO1 (centres undefined),inactive: -18.2%
8,CCOc1ccc(/C=C/c2nc(C#N)c(N3CCCCCC3)o2)cc1,inactive: 4.06%
9,Cc1ccc(CNC(=O)c2ccc(CSCc3c(F)cccc3Cl)o2)cc1,inactive: -5.32%
10,COc1ccccc1NC(=O)Cn1c(=O)n(Cc2nc(C)no2)c(=O)c2cc3c(cc21)OCO3,inactive: 6.46%
11,Cc1cc(C)n2nc(CNS(=O)(=O)c3ccc(F)cc3)nc2n1,inactive: -0.391%
12,CCCOc1ccc(Cn2c(=O)sc3ccccc32)cc1,inactive: 0.841%
13,O=C(CSCc1ccc(F)cc1)N1CCc2c([nH]c3ccccc23)C1c1ccccc1 (centres undefined),inactive: -18.9%
14,CCCCCNc1nc2c(-c3ccccc3)nnn2c2ccccc12,inactive: 14.7%
15,CCc1ccc(OC(=O)c2sc3ncn(Cc4cccc(F)c4)c(=O)c3c2C)cc1,inactive: 0.55%
16,Cc1cccc(N2CCN(C(=O)c3ccc4c(c3)N(Cc3cccc(Cl)c3)C(=O)c3ccccc3S4=O)CC2)c1C (centres undefined),inactive: -3.67%
17,Cc1ccc(-c2nc(SCC(=O)Nc3cc(C)on3)c3c(=O)n(C)c(=O)n(C)c3n2)cc1,inactive: -9.63%
18,COc1ccccc1NC(=O)c1c(NC(=O)c2cccs2)sc2c1CCC(C(C)(C)C)C2 (centres undefined),inactive: -2.08%
19,Oc1c(C(c2ccc(Cl)cc2Cl)N2CCCC2)sc2nc(-c3ccco3)nn12 (centres undefined),inactive: 7.23%
20,CCOc1ccc(CCNC(=O)CCSCc2cccc(Cl)c2)cc1OCC,inactive: 1.58%
21,O=C(COc1ccc(F)cc1)OCc1cc(=O)n2nc(C3CC3)sc2n1,inactive: -7.03%
22,Cc1ccc(CCNC(=O)C2CCCN(S(=O)(=O)c3ccc4c(c3)oc(=O)n4C)C2)cc1 (centres undefined),inactive: 4.9%

row,Compound,"activity change, negative = cytotoxicity"
1,CCc1ccc(-n2nc(C)c3c(C)cc(=O)n(CC(=O)N(CC)Cc4ccccc4)c32)cc1,inactive: -0.859%
2,CN(C)c1ccc(NC(=O)C2(c3cccs3)CCOCC2)cc1,inactive: -7.02%
3,O=C(Nc1cc(Cl)ccc1O)c1cc2nc(-c3ccc4c(c3)OCO4)cc(C(F)(F)F)n2n1,inactive: -0.17%
4,CCc1ccccc1NC(=O)COC(=O)c1cn(CC)c2nc(C)ccc2c1=O,inactive: 18.2%
5,CCCCOC(=O)c1ccc(Nc2nc3ccc(C)cc3n3cnnc23)cc1,inactive: 16.8%
6,COc1ccc(N2CC(C(=O)Nc3ccccc3-c3nc(-c4ccc(C)cc4)no3)CC2=O)cc1 (centres undefined),inactive: 2.54%
7,CCCSc1nc2c(c(=O)[nH]1)C(c1ccc(O)c(OCC)c1)CC(=O)N2 (centres undefined),inactive: -11.9%
8,COc1ccc(C(=O)NCCc2nc3ccccc3[nH]2)cc1,inactive: 0.867%
9,CC(C)(C)c1ccc(OCc2cc(=O)n3c4c(sc3n2)CCCC4)cc1,inactive: 12.3%
10,Cc1ccccc1CSCc1ccc(C(=O)NCCc2ccccc2)o1,inactive: 11.3%
11,COc1cccc(NC(=O)c2oc3ccc(S(=O)(=O)N4CCC5(CC4)OCCO5)cc3c2C)c1,inactive: -27.6%
12,CCOc1ccc(C(CC(=O)Nc2ccc(C(=O)OC)cc2)N2Cc3ccccc3C2=O)cc1OC (centres undefined),inactive: 9.21%
13,CN(C)c1ccc(CNS(=O)(=O)c2csc(C(N)=O)c2)cc1,inactive: -25%
14,O=C(NCC(c1ccco1)S(=O)(=O)c1cccs1)c1ccc(C(F)(F)F)cc1 (centres undefined),inactive: 0.523%
15,COc1cccc(NC(=O)Nc2cc(-c3cn4cccnc4n3)ccc2OC)c1,inactive: 2.54%
16,CCn1cc2nc(SCc3ccccc3)n(Cc3ccc(C)cc3)c(=O)c2n1,inactive: -25.1%
17,Clc1ccc(-c2noc3ncnc(N4CCCCC4)c23)cc1,inactive: -20.7%
18,COc1ccc(C)cc1NC(=O)c1cc(S(=O)(=O)NCCC2=CCCCC2)ccc1F,inactive: 5.45%
19,Cc1ccccc1NC(=O)CSc1nc2ccc(NC(=O)c3ccco3)cc2s1,inactive: -4.2%
20,O=C(CSc1nc(-c2ccccc2)no1)N1CCN(c2ccc(F)cc2)CC1,inactive: 0.668%
